Experimental data taken from PubChem BioAssay AID687023 (Broad Institute, 2013).
Not every entry of the source has a single result; some have several. The other results are left out here. An entry can have further records. The values listed for one entry repeat one measurement (runs, samples, wells, individuals or studies). Records carry a tag for their origin. Letters hold for one entry only.

Tested on: Env-mediated cell-cell fusion, plate reader
Assay: inhibition of Env-driven cell fusion – HIV entry, plate reader, dry powder, dose response (AID 687023)

COc1ccccc1CCNCc1ccc(OC)c(OCc2ccccc2)c1
AC50: 284 nM [sample A] and 3.08 µM [sample B]

CCOc1ccc(S(=O)(=O)NCc2ccncc2)cc1
AC50: 1.68 µM [sample A] and 27.5 nM [sample B]
